Data: the supplement of paper PMC11417369
Some of the results follow.

System: PfAP2-HC AP2 domain (GST-tagged)
Assay: gcPBM binding intensity (ln(normalized median fluorescence intensity)); higher = stronger DNA binding
Method in brief: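 Alexa488 anti-GST antibody, scanned at 488 nm, detected GST-tagged P. falciparum DNA-binding domains that had been expressed in E. coli and incubated for 1 h on an Agilent 4 × 180k array. The array carried primer-extended double-stranded 36-bp intergenic genomic probes and negative controls. Binding intensity is the highest Masliner-normalised natural-log median intensity across replicate spots of either orientation of each probe.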

Sequence | gcPBM binding intensity (ln)
ATATCGTATATGAGTGGTACTAATATGTAAAAAAAA [XGTACX_site7830] | 9.83
TATTATCTCTTATGAACACACATTTTTATTTTCAAA [CACACA_site3353] | 9.74
ATATAAGTATTTTGAATGCACTTTCTTTTTTTTTTT | 9.56
ACTGAAAAAAGAAATACACACATTCTGGATCATATA [CACACA_site3860] | 9.86
TTATAAAATAATTAATGTACGTTTATGTGTATCGAA [XGTACX_site6117] | 9.56
AAAGTTATAATACGTACACACCTTATCTTTTTGGCT [CACACA_site6267] | 9.81
TTTATGGGTATGTTTACACACATAAAAAAATATATG [CACACA_site5646] | 9.74
ATATATATGAAAATATGTACATATATATATATATAA [XGTACX_site7550] | 9.8
AGCACAAGCACAAGCACACATTTATATATAAATACA [CACACA_site4642] | 9.85
ACAAAATATACAAAATGTACAAAATTTACAAAATAT [XGTACX_site6466] | 9.81
AAAAAAAAAAATAAAGAAATCAAAATTGATGAATAA [GTGCAC_negctrl_site692] | 9.63
TATATAAAAAATAAATGTACACATGTAATAATAAAA [XGTACX_site2640] | 9.94
TGTGTAAACATATTCACACACATAAATTCGCATATA [CACACA_site6961] | 9.91
TATAAATATACACCCACACACATATATATATATATA [CACACA_site3745] | 10
TATATATATTTATGCTGTACCAAATAAGAATAGAAA [XGTACX_site7731] | 9.6
ATATGAACAAAATAAATCTCTTCAAAAATAATGTTC [GTGCAC_negctrl_site2] | 9.55
TAAATGATTGCATAATGTACATATAATTTTTTTTTT [XGTACX_site1988] | 9.55
TACTTACATATAATAACACACAAGAAAAAAATAAAA [CACACA_site1033] | 9.83
ATTTTTGTACACTTCTTTTTTTTTTTTCTTTTATGT [CACACA_negctrl_site1323] | 10.3
TACCCATGCATTTTTGCACACACATATATATATAAA [CACACA_site1429] | 9.94
AGACAGCGCACAAACACACAAACACCCACCCACATA [CACACA_site451] | 11.3
ATTTATTATGAACATACACACAAAAAAAAAAAGTAT [CACACA_site2054] | 10.5
TAACTTTGAAAAGATGGTACACAATAATATATATAT [XGTACX_site8667] | 9.85
ATTGTTATTTATTGTGTGCGCATTAATACATACATA [GTGCAC_site9982] | 10.2
TAATGTTGAGAATTTTGTACATATAGATCAATTTAT [XGTACX_site5426] | 9.45
